# Assay results: PubChem BioAssay AID488969 (Vanderbilt High Throughput Screening Facility, 2010)
# In all, about 110,000 compounds were measured (“z-score”: median about -0.1, highest 2% from about 2 on). The list shows a part of the results. Active and inactive are the calls of the source.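 How the source made its calls: active means z-score in the third read window above 3 or below -3; inactive means the rest.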
# Target: Metabotropic glutamate receptor 8 (Rattus norvegicus) (UniProt P70579)
# Assay: mGluR8 Gi/Go-coupled signaling modulation – cell-based, rat, thallium flux, HTS, primary screen (AID 488969)
# Conditions: HEK293 rat mGluR8, GIRK (G protein-gated inwardly rectifying potassium channel) thallium flux, FluoZin2; at 10 µM; stronger effect = higher value; submaximal glutamate (EC20) added with thallium
# Sequence of UniProt P70579 (P70579 whole entry, looked up): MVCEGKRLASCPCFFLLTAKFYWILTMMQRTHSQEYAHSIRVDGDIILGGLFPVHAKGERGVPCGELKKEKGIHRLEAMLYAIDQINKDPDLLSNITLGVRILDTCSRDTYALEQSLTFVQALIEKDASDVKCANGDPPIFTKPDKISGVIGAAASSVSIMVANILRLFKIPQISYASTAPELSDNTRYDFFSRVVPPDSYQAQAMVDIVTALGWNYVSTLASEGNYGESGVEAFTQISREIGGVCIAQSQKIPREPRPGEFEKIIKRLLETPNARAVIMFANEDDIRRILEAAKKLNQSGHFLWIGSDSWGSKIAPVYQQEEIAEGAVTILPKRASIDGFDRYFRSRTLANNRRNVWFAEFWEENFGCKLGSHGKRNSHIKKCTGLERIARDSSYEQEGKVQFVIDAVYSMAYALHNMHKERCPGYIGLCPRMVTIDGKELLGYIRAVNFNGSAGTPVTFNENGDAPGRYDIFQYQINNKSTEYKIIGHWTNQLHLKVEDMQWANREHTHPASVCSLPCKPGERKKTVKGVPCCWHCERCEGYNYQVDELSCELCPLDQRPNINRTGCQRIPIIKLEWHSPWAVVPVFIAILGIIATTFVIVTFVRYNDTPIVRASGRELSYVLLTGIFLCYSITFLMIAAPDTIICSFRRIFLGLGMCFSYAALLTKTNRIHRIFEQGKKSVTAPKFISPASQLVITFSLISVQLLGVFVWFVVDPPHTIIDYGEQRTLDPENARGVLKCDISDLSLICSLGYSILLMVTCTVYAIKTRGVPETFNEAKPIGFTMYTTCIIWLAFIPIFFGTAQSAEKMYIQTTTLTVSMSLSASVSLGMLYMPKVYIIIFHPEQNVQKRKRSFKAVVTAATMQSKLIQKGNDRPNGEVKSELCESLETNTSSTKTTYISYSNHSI
row,SMILES,z-score
1,COc1ccc(CCN2C(=O)C3C4C=CC(C3C2=O)C2C(=O)N(CCc3ccc(OC)c(OC)c3)C(=O)C42)cc1OC (stereo unspecified),-0.192
2,CCc1nnc(SCC(=O)NC2CCCC2)nc1CC,-0.417
3,CCCC(=O)N1CC(=O)Nc2ccc(F)cc2C1c1ccccc1 (stereo unspecified),-0.534
4,COc1ccc(CNc2nc(SCC(=O)NCc3ccco3)nc3ccccc23)cc1,-0.121
5,O=C(Cn1cc(C(F)(F)F)ccc1=O)N/N=C/c1ccc(Cl)c(Cl)c1,-0.189
6,COc1ccc2cc(C(=O)NC3CCCCC3)c(=O)oc2c1,1.24
7,COc1ccc(CNC(=O)[C@H](C)NC(=O)C2CCN(S(=O)(=O)c3ccc(C)cc3)CC2)cc1,-0.431
8,O=C(Cn1nnc(-c2cccs2)n1)N1c2ccccc2Sc2ccc(C(F)(F)F)cc21,-0.347
9,Cc1cc(C)n2nc(-c3sccc3-n3c(C)ccc3C)cc2n1,-0.413
10,COC(=O)c1cccc(NS(=O)(=O)c2cccs2)c1C,-0.213
11,CSc1ncc(Cl)c(C(=O)Nc2cccc(C)c2)n1,-0.278
12,CCCc1cc(NCCCCO)n2c(nc3ccccc32)c1C#N,0.879
13,O=C(NC1=NC2CCCCC2N1)c1ccccc1 (stereo unspecified),0.389
14,Cc1ccc(N(C(=O)CCl)C(C(=O)NC2CCCCC2)c2cccnc2)cc1C (stereo unspecified),-0.0597
15,CCN(CC)S(=O)(=O)c1cc(C(=O)OCC(=O)c2ccc3c(c2)NC(=O)CO3)ccc1Cl,-0.129
16,CCOc1ccc(N2C(=O)CC(N3CCN(C4CCc5ccccc5C4)CC3)C2=O)cc1 (stereo unspecified),-1.05
17,O=C(O)CCNC(=O)c1cncc(Br)c1,-0.427
18,O=C(NCc1ccco1)C(c1cccs1)N(Cc1ccccc1)C(=O)Cn1nnc2ccccc21 (stereo unspecified),-0.301
19,CNC(=O)CN(c1cccc(Br)c1)S(C)(=O)=O,0.216

row,SMILES,z-score
1,CN(C)S(=O)(=O)c1cc(C(=O)NCCCn2ccc3ccccc32)ccc1Cl,-0.037
2,CCOC(=O)c1ccc(N2C(=O)c3n[nH]c(C)c3C2c2ccc(O)cc2)cc1 (stereo unspecified),0.303
3,COc1ccc(S(=O)(=O)N(C)c2ccc(OCC(=O)Nc3cc(C)on3)cc2)cc1,-0.798
4,O=C(CSc1nnc(-c2ccccc2F)n1C1CC1)Nc1cccnc1Cl,-0.434
5,Cn1cccc1CNC1CCCC1,-1.43
6,O=C(O)c1ccc(Cl)c2c1C1C=CCC1C(c1ccccn1)N2 (stereo unspecified),-0.0854
7,Cc1nn(CC(=O)Nc2ccc(S(=O)(=O)N(C)C)cc2)c(C)c1[N+](=O)[O-],-0.0283
8,CC(C)(C)N1C(=O)c2ccc(C(=O)O)cc2C1=O,-0.147
9,CN(C)c1ccc(C(=O)/C=C/c2ccco2)cc1,-0.196
10,Fc1ccc(Cn2c(SCc3ccc(F)c(F)c3)nnc2C(F)(F)F)cc1,-0.728
11,O=C1CC(=O)C(n2cncn2)C(c2cccc(Cl)c2)C1 (stereo unspecified),-0.0582
12,O=C(Nc1nnc(C23CC4CC(CC(C4)C2)C3)s1)c1ccco1,-0.386
13,O=C(O)[C@H]1CCCC[C@H]1C(=O)Nc1ccc(Nc2ccccc2)cc1,-0.328
14,CCCN1C(=O)C(NC(C)=O)c2ccccc21 (stereo unspecified),0.136
15,CCOC(=O)c1cnc(SCc2ccccc2)nc1N,-0.388
16,CCC(=O)Nc1ccc(NC(=S)NC(=O)c2cc3ccccc3o2)cc1,0.638
17,Cc1ccc(S/C(=N\S(=O)(=O)c2ccc(Cl)cc2)c2ccccc2)cc1,-0.0761
18,C/C(=N\O)C(C)NC(=O)c1ccccc1 (stereo unspecified),active: 3.54
19,CS(=O)(=O)N1CCN(C(=O)c2ccc(Br)s2)CC1,0.161

row,SMILES,z-score
1,COc1ccc2nc(SCc3cnc(C)nc3N)[nH]c2c1,0.0366
2,COCc1nnc(NC(=O)CC(c2ccccc2)c2ccccc2)s1,0.479
3,COCCNC(=O)CSc1nc2ccccc2c2nc(C)nn12,0.864
4,COC(=O)c1oc2ccccc2c1N,-0.146
5,Cc1cc(NS(=O)(=O)c2ccc(NC(=O)CCCOc3ccccc3)cc2)no1,-0.435
6,CC(=O)NC1(C(F)(F)F)C(=O)Nc2c1c(=O)[nH]c(=O)n2Cc1ccco1 (stereo unspecified),-0.0113
7,N#Cc1ccc2ccn(CC(=O)NCc3ccccc3)c2c1,0.232
8,COCCNC(=O)C(c1cccs1)N(C(=O)Cn1nnc2ccccc21)c1ccccc1 (stereo unspecified),-0.0261
9,NC1=NC(=O)C(Cc2cccc(Cl)c2Cl)S1 (stereo unspecified),-0.0419
10,CC(C)OC(=O)n1c(=S)oc2ccccc21,-0.00387
11,O=C(COC(=O)CSc1nnc(-c2ccc(Cl)cc2)o1)Nc1cc(Cl)cc(Cl)c1,-0.26
12,O=C(NCc1ccc2c(c1)OCO2)C1CCCN1C(=O)Nc1ccc(F)cc1 (stereo unspecified),-0.232
13,O=C(Nc1nnc(COc2ccccc2)s1)C1CCN(S(=O)(=O)c2ccc(Cl)cc2)CC1,-0.122
14,CN1CCN(c2nc3c(c(=O)[nH]c(=O)n3C)n2Cc2cccc3ccccc23)CC1,-0.0665
15,COc1ccc(C2=C(CN(C)C)C(c3ccccc3)c3ccccc3O2)cc1 (stereo unspecified),-0.52
16,COc1ccc(/C=N/Nc2ncc(-c3ccccc3)cn2)c(OC)c1,-0.0479
17,CC(C)[C@H](NC(=O)c1cccc(S(=O)(=O)N2CCOCC2)c1)C(=O)Nc1nc2ccccc2s1,0.522
18,COc1ccc2c(c1OC)C(=O)N(c1cccc(C)c1)C2,0.217
